Source: PubChem BioAssay AID720542 (National Center for Advancing Translational Sciences (NCATS), 2013)
Out of some 360,000 compounds screened, about 740 (0.21%) were called active. The inconclusive results got no clear call from the source; some entries with a clear call stand among them for comparison. Calls come from the whole dose curve; as a rule, active = well fitted inhibition curve with a large enough effect; inconclusive = small, poorly fitted or top-dose-only effect; inactive = no such curve, though single readings can be large or run the other way. Potencies of inconclusive entries are left out as doubtful fits.

system: Plasmodium falciparum AMA1 (3D7) - RON2 peptide interaction; experiment: qHTS for Inhibitors of AMA1-RON; Towards Development of Antimalarial Drug Lead: Primary Screen; conditions: AlphaScreen AMA1-biotinylated RON2 peptide binding; activity change, negative = inhibition: at 58.2 µM (top of the series) unless noted; note: nearly all actives have a fitted effect of over 45% in size;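 for activity change, negative = inhibition: 0% = vehicle wells and -100% = peptide control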
In short: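 AMA1 (3D7) with his tag at 25 nM final met compounds first, then biotinylated RON2 peptide at 25 nM; detection used donor plus acceptor beads, 10 µg/mL apiece, read by AlphaScreen after 30 min at room temperature.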
Potency is the fitted concentration of half-maximal effect; tags give direction and shape of the fitted curve.

Row | SMILES | Potency | activity change, negative = inhibition
1 | COCCCn1c(SCc2ccc(OC)cc2)nc2cc(OC)c(OC)cc2c1=N | inconclusive [inhibitor, single point] | 
2 | CN(C)S(=O)(=O)c1cc(NC(=O)CN2CCCc3ccccc32)ccc1Cl | inconclusive [inhibitor, partial curve] | 
3 | CCN(CC)C(=S)SCC(=O)c1ccccc1 |  | inactive: 9.96%
4 | Cc1ccc2sc(N(CCCN(C)C)C(=O)c3ccc(S(=O)(=O)N(C)Cc4ccccc4)cc3)nc2c1C | inconclusive [inhibitor, single point] | 
5 | O=C(CNC(=O)c1ccco1)N=Nc1c(O)n(CCc2ccccc2)c2ccccc12 | inconclusive [inhibitor, partial curve] | 
6 | Oc1ccc(-c2nc3ccccc3s2)cc1 |  | inactive: -0.0411%
7 | O=C(Nc1ccc(Oc2ccccc2)nc1)C1CCN(Cc2ccccc2)CC1 |  | inactive: 5.17%
8 | COc1ccc(/C=N/N2CCOCC2)cc1OCc1ccccc1 | inconclusive [inhibitor, single point] | 
9 | CC(=O)Nc1ccc(S(=O)(=O)Nc2nc3ccccc3nc2Nc2ccc(C(=O)O)c(O)c2)cc1 | inconclusive [inhibitor, full curve] | 
10 | CCOc1cc(CNCCc2c[nH]c3ccccc23)cc(Cl)c1OC | inconclusive [inhibitor, partial curve, poor fit] | 
11 | COc1cc(/C=C(\C#N)c2nc3ccccc3n2C)cc(OC)c1O |  | inactive: -1.36%
12 | CC(=O)c1cccc(NC(=O)/C(=C/c2ccco2)NC(=O)c2ccco2)c1 |  | inactive: 2.74%
13 | CN(C)S(=O)(=O)c1cccc(NC(=S)NCCCn2ccnc2)c1 |  | inactive: -18.7%
14 | COc1ccc(NC(=O)c2ccccc2NC(=O)CSc2ccccc2)cc1 | inconclusive [inhibitor, single point] | 
15 | O=C(COC(=O)C1CCC1)Nc1ncc(Cl)cc1Cl |  | inactive: 0.96%
16 | COc1ccc(OC)c(CN2CCN(Cc3cc(OC)c(OC)c(OC)c3)CC2)c1 | inconclusive [inhibitor, partial curve] | 
17 | CCc1nnc(NC(=O)C2CC(=O)N(CCc3ccccc3)C2)s1 (stereo not drawn) |  | inactive: 2.96%
18 | COc1ccc(N2CCN(CC(=O)Nc3nc(C)cs3)CC2)cc1 | inconclusive [inhibitor, partial curve, poor fit] | 
19 | OCCN1CCN(CC/C=C2/c3ccccc3Sc3ccc(Cl)cc32)CC1 | inconclusive [inhibitor, partial curve] | 
20 | CN(c1ccccc1)S(=O)(=O)c1cccc(C(=O)NC2CCCC2)c1 |  | inactive: 12.5%
21 | COc1cc(CNCC(C)C)c(Br)cc1OCC(=O)NCc1ccccc1 |  | inactive: 4.38%
22 | COc1ccc(N2CCN(CC(=O)Nc3ccccc3SC)CC2)cc1 | inconclusive [inhibitor, full curve, poor fit] | 
23 | COc1ccc([C@H]2/C=C\CN(Cc3ccc(N(C)C)cc3)[C@@H](C)C(=O)N2Cc2ccc(F)cc2)cc1 | inconclusive [inhibitor, single point] | 

Row | SMILES | Potency | activity change, negative = inhibition
24 | Cc1ccccc1OCc1nnc2c3cnn(C)c3ncn12 |  | inactive: 3.07%
25 | Brc1ccc2c(c1)C(c1cccnc1)=NNC(c1cccs1)=N2 | inconclusive [inhibitor, full curve, poor fit] | 
26 | c1ccc(N=NC2=NN(c3ccccc3)CS2)cc1 | inconclusive [inhibitor, full curve] | 
27 | Oc1cccc(/C=N/N(Cc2ccccc2)c2ccccc2)c1 | inconclusive [inhibitor, single point] | 
28 | CCCCn1nnnc1C1(C)CCC(=O)N1Cc1ccco1 (stereo not drawn) | inconclusive [inhibitor, full curve, poor fit] | 
29 | COC(=O)C1=C(C(=O)OC)[C@@H]2N(C)c3ccc(OC)cc3[C@@]23C[C@@H](C(=O)OC)N(C(=O)NCCBr)C3=N1 | inconclusive [inhibitor, partial curve] | 
30 | CC(C)CC(=O)N1CCN(Cc2ccc(Br)cc2)CC1 | inconclusive [inhibitor, single point] | 
31 | CCCCOc1ccc(OCCNC(=O)C2CCCN2C(=O)Nc2ccccc2)cc1 (stereo not drawn) | inconclusive [inhibitor, partial curve] | 
32 | COc1ccc(OCCCC(=O)OC(C)C(=O)Nc2cccc(C(C)=O)c2)cc1 (stereo not drawn) | inconclusive [inhibitor, partial curve, poor fit] | 
33 | COc1cccc(CNc2ncnc3cc(Cl)ccc23)c1 |  | inactive: 12.1%
34 | O=C(c1ccco1)N1CCN(S(=O)(=O)c2ccc(Br)s2)CC1 |  | inactive: 5.47%
35 | CN(C(=O)COC(=O)CCCN1C(=O)c2cccc3cccc(c23)C1=O)C1CCS(=O)(=O)C1 (stereo not drawn) |  | inactive: -5.8%
36 | Cn1c(C(=O)NCCCN2CCN(c3cccc(Cl)c3)CC2)cc2c(=O)n(C)c3ccccc3c21 | inconclusive [inhibitor, partial curve] | 
37 | COc1ccc(-c2[nH]ncc2/C=C(/C#N)C(=O)NC2CCCCC2)cc1 | inconclusive [inhibitor, single point] | 
38 | CC(C)c1cccc(C2=CC(=O)C[C@H](c3ccc4c(c3)OCO4)C2)c1 |  | inactive: -25.8%
39 | CC(C)c1cccc(C(C)C)c1NC(=O)CNCc1ccccc1F | inconclusive [inhibitor, single point] | 
40 | COc1ccc([N+](=O)[O-])cc1-n1cccc1 | inconclusive [inhibitor, partial curve] | 
41 | COc1cc(-c2cc(C(=O)Nc3ccc(S(N)(=O)=O)cc3)c3ccccc3n2)cc(OC)c1OC |  | inactive: -3.3%
42 | Cc1ccc(CNC(=O)CCCNC(=O)c2ccc(Cl)cc2)n1C |  | inconclusive: -10.7% [inhibitor]
43 | CCc1[nH]nc(C(=O)N2CCCC(N3CCN(c4ccccc4C)CC3)C2)c1C (stereo not drawn) |  | inactive: -13.6%
44 | COCCN=c1scc(-c2cc(OC)ccc2OC)n1/N=C/c1c[nH]c2ccccc12 | inconclusive [inhibitor, single point] | 
45 | Cc1csc(=Nc2ccc(S(=O)(=O)N3CCOCC3)cc2)n1Cc1ccco1 | inconclusive [inhibitor, partial curve] | 
46 | CN(C)c1ccc(NC(=O)c2cccc(C(=O)Nc3ccc(N(C)C)cc3)n2)cc1 | active: 10 µM | 

Row | SMILES | Potency | activity change, negative = inhibition
47 | C[n+]1c(-c2ccccc2)c2cc(N)ccc2c2ccc(N)cc21 | inconclusive [inhibitor, single point] | 
48 | CC1CCCCN1C(=O)CSc1nc2ncccc2[nH]1 (stereo not drawn) |  | inactive: -5.62%
49 | COc1ccc(OC)c(C(=O)NC(CC(N)=O)c2ccc(NCCN3CCOCC3)c([N+](=O)[O-])c2)c1 (stereo not drawn) |  | inactive: -10.5%
50 | Cc1cc(/C=C2\SC(=O)NC2=O)c(C)n1-c1ccc(N(C)C)cc1 | inconclusive [inhibitor, partial curve] | 
51 | CN1CCN(C(=O)c2cc(-c3ccccc3)on2)CC1 |  | inactive: -9.12%
52 | Cc1ccc2nc(N(CCCN(C)C)C(=O)c3ccc(S(=O)(=O)N4CCOCC4)cc3)sc2c1 |  | inactive: 1.33%
53 | C[C@]12c3[nH]c4cc(-c5ccco5)ccc4c3CCN1C(=O)[C@@H](CC(=O)NCCCn1ccnc1)C[C@@H]2C(=O)N1CCOCC1 | inconclusive [inhibitor, single point] | 
54 | CC1CN(C(=O)c2ccc(N3CCCCC3)c([N+](=O)[O-])c2)CC(C)O1 (stereo not drawn) |  | inactive: -18.5%
55 | CC(C)C1C(=O)N(Cc2cn(Cc3ccco3)nn2)CCS(=O)(=O)N1Cc1ccc(-c2cccc(N(C)C)c2)cc1 (stereo not drawn) | inconclusive [inhibitor, single point] | 
56 | CN(CCC#N)C(=O)COC(=O)c1c2c(nc3ccccc13)/C(=C\c1ccco1)CC2 | inconclusive [inhibitor, partial curve] | 
57 | COc1cc(CN2CCC(Cc3ccccc3)CC2)cc([N+](=O)[O-])c1O | inconclusive [inhibitor, single point] | 
58 | CCOC(=O)C1=C(N)OC2=C(C(=O)CC(C)(C)C2)C1c1cccnc1 (stereo not drawn) | inconclusive [inhibitor, full curve, poor fit] | 
59 | C=CCc1ccc(OCCCCN2CC(C)CC(C)C2)c(OC)c1 (stereo not drawn) | inconclusive [inhibitor, partial curve] | 
60 | CC1(C)CC(=O)c2cc(C(=O)Nn3cnnc3)c(=O)n(-c3ccccc3)c2C1 | inconclusive [inhibitor, partial curve] | 
61 | CCc1ccc(OCc2nnc(SCCN3CCOCC3)n2CC)cc1 | inconclusive [inhibitor, partial curve, poor fit] | 
62 | CNS(=O)(=O)c1cc(OCC(N)=O)c(C)cc1Cl |  | inactive: -2.94%
63 | COc1ccc(C(=O)N/N=C/c2ccc(OC)c(CN3CCCc4ccccc43)c2)cc1 | inconclusive [inhibitor, partial curve] | 
64 | CCOC(=O)C1=C2c3cc(OC)c(OC)cc3CC(C)(C)N2C(=O)C1=O | inconclusive [inhibitor, partial curve, poor fit] | 
65 | Cc1ccc(C)c(N2CCN(C(=O)Cc3cn(C)c4ccccc34)CC2)c1 | inconclusive [inhibitor, partial curve] | 
66 | CCc1cccc(N=c2c([N+](=O)[O-])nn(-c3ccc4c(c3)OCCO4)n2O)c1 | inconclusive [inhibitor, partial curve] | 
67 | CCN(CC)c1ccc(N=C2C=CC(=O)C=C2NC(C)=O)cc1 | inconclusive [inhibitor, partial curve] | 
68 | c1ccc2c(c1)Nc1ccccc1S2 | inconclusive [inhibitor, single point] | 
